Consider 42 molecules from paper PMC4336329 (PLoS ONE, 2015).

About 2,200 (0.71%) of roughly 310,000 compounds showed an effect of 50% or more. Effects have a minus sign here. The list shows a part of the results.

The target of the assay is human ether-à-go-go-related gene (hERG) potassium channel (human, UniProt Q12809). The assay is described as follows: primary screen, population patch clamp on CHO cells stably expressing hERG.
human ether-à-go-go-related gene (hERG) potassium channel, sequence (Q12809 whole entry, looked up): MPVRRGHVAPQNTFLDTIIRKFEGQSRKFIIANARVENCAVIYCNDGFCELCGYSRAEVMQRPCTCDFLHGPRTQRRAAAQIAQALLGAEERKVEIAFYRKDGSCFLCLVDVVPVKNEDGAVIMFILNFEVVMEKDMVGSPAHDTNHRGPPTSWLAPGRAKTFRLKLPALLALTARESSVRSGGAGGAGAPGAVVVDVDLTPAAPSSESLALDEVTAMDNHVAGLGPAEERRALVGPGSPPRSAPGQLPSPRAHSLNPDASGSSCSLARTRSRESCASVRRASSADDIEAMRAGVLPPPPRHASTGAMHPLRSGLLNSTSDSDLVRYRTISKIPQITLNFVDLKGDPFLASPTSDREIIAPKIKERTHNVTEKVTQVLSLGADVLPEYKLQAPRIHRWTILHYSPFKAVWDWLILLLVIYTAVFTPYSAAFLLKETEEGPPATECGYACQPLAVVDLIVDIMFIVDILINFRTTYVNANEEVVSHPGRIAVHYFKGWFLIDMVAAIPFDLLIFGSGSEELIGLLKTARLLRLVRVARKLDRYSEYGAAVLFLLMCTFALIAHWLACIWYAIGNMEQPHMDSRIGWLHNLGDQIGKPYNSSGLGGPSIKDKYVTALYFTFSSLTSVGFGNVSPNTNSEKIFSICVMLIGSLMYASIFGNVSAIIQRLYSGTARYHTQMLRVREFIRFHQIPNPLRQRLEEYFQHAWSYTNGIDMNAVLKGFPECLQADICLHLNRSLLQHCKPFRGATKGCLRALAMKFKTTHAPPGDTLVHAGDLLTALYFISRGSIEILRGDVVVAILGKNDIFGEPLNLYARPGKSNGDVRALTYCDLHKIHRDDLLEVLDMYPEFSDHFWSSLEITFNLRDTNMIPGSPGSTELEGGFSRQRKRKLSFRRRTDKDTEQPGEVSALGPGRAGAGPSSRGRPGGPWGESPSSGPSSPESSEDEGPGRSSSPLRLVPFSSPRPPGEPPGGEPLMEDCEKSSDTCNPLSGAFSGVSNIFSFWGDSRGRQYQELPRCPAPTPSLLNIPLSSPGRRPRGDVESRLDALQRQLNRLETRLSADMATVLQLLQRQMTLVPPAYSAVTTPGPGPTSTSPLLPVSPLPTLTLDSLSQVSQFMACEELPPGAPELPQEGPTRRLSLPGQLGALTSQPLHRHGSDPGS
As for `S=C(c1ccc(OCc2ccccc2)cc1)N1CCCC1`, the “hERG current change (%, negative = inhibition) at 1uM” value is on record as 12.8%. Consider `NS(=O)(=O)c1ccc(CNC(=O)CSc2ccccc2)cc1`, for which the “hERG current change (%, negative = inhibition) at 1uM” value was 19.9%.

Turning to `Cc1cc(Br)ccc1SCC(=O)OCC(=O)Nc1ncc(C(F)(F)F)cc1Cl`, the “hERG current change (%, negative = inhibition) at 1uM” value was 15.2%.

Regarding `O=C1c2ccccc2C(=O)N1CCC#Cc1ccc2cc(C3(O)CCCCC3)oc(=O)c2c1`, the “hERG current change (%, negative = inhibition) at 1uM” value is -0.0489%. For `Cc1ccc(C(=O)Nc2cccc(N3C(=O)C4CCC(C)CC4C3=O)c2)cc1` (stereo not drawn) the value was 2.68%; for `COC(=O)[C@@H]1C[C@@]2(O)[C@H](O)[C@H](O)[C@H](O)C[C@H]2N1Cc1ccccc1OS(=O)(=O)c1ccc(C)cc1`, 7.23%. Take `CC(C)(C)c1ccc(C(=O)NCC(=O)OCN2C(=O)c3ccccc3C2=O)cc1`: the “hERG current change (%, negative = inhibition) at 1uM” value is -1.63%. With `CC(CCc1ccccc1)NC(=O)COC(=O)c1ccccc1Br` (stereo not drawn), the “hERG current change (%, negative = inhibition) at 1uM” value worked out at 15%. Then `Cc1ccc(Cl)cc1N1CCN(C(=O)C2CCN(c3nnc(-n4cccc4)s3)CC2)CC1`, with 7%; and `COc1ccc(COC(=O)CCS(=O)(=O)c2ccc(C)cc2)cc1F`, with 3.94%. On to `COc1ccc(OCC(=O)O/N=C(\N)Cc2ccc(Cl)cc2Cl)cc1`, for which the “hERG current change (%, negative = inhibition) at 1uM” value came to 6.98%. `CCN1CCN(C(=O)C(C)Sc2nnc3nc(C)cc(C)n23)CC1` (stereo not drawn): the “hERG current change (%, negative = inhibition) at 1uM” value is given as -2.49%. As for `N=C1/C(=C/c2ccc(OC(=O)c3ccco3)cc2)C(=O)N=C2SC=CN12`, the “hERG current change (%, negative = inhibition) at 1uM” value came to 17.7%. For `O=C(NC(=S)N1CCN(c2ccc([N+](=O)[O-])cc2)CC1)c1ccccc1Cl` the value was -11%; for `CCOc1ccc(CCNC(=O)Nc2cccc(OC)c2)cc1OCC`, 14.8%. With `O=C(c1cc(-c2ccccc2)nc2ccccc12)N1CCOCC1`, the “hERG current change (%, negative = inhibition) at 1uM” value stood at 15.4%.

On to `CN(C)c1ccc(/C=N/NC(=O)c2cnc3ccccc3c2)cc1`, for which the “hERG current change (%, negative = inhibition) at 1uM” value came to 7.84%. For `O=C(CCN1C(=O)c2ccncc2C1=O)Nc1ccc(F)cc1` the value was 12.2%; for `Cc1n[nH]c(=O)nc1NC(C)c1ccccc1` (stereo not drawn), 4.37%. Then `Cc1nn2c3c(cnc2c1-c1ccccc1)C(=O)CC(c1ccccc1)C3` (stereo not drawn), with 16.1%. For `O=C(O)c1ccc(-n2c(-c3cc(C4CC4)[nH]n3)n[nH]c2=S)cc1` the value was 11.9%. Take `COc1ccc(C2(C(=O)NCCc3ccccc3)CCCC2)cc1OC`: the “hERG current change (%, negative = inhibition) at 1uM” value stood at 7.39%.

As to `C/C(=N\NC(=O)c1cc2ccccc2cc1O)c1ccccn1`, the “hERG current change (%, negative = inhibition) at 1uM” value turned out to be 10.5%. Then `COc1ccc(CNC(=O)CN2C(=O)C3C4C=CC(C4)C3C2=O)cc1` (stereo not drawn), with 15.3%; and `COc1cccc(/C=N/n2nnnc2N)c1OCC#N`, with 13.1%.

Regarding `CCN(CC)C(=O)Cn1cc(C(=O)C(=O)NCc2cccs2)c2ccccc21`, the “hERG current change (%, negative = inhibition) at 1uM” value is listed as -9.68%.

Regarding `COc1ccccc1N1CCN(CC(=O)Nc2c(C)n[nH]c2C)CC1`, the “hERG current change (%, negative = inhibition) at 1uM” value was 13.2%. As to `CCn1ccnc1CN(C)C(=O)c1cc(COc2ccccc2SC)on1`, the “hERG current change (%, negative = inhibition) at 1uM” value came out at 10.9%. Then `C=CCNC(=S)N1CCc2[nH]c3ccccc3c2C1`, with 12%. For `Cc1oc(-c2ccc(Cl)cc2)[n+]([O-])c1C.Cl` the value was 13.3%; for `COc1ccccc1C(=O)NC(CCSC)C(=O)NNC(=O)c1ccccc1C` (stereo not drawn), 9.3%; for `Cn1cc(CN2CCN(c3cnccn3)CC2)c(-c2cccc(Cl)c2)n1`, 10.2%.

As for `Cc1ccc(Cn2c3ccccc3c3cn[nH]c(=O)c32)cc1`, the “hERG current change (%, negative = inhibition) at 1uM” value is recorded as 7.86%.

For `CC(=O)NC1C(c2nc3ccccc3s2)=C(c2ccccc2)C(=O)N1c1ccc(C)cc1` (stereo not drawn), the “hERG current change (%, negative = inhibition) at 1uM” value is 16.6%. For `O=C(C1=C[C@H](C2CCCCC2)C[C@H](OCCCCO)O1)N1CCN(Cc2ccc3c(c2)OCO3)CC1` the value was -10.4%; for `CCSC1=NCCN1C(=O)c1ccc(S(=O)(=O)N(C)C)cc1`, 21.5%. Then `O=C(COC(=O)c1ccccc1O)Nc1cc([N+](=O)[O-])ccc1Cl`, with 7.62%; and `COc1ccc(CSc2ccc(-c3nc4ccccn4c3NCc3ccccc3)cc2OC)cc1.O=C(O)C(F)(F)F`, with 7.84%. For `CC(C)C[C@H](NC(=O)c1nc[nH]c1C(=O)N[C@@H](CC(C)C)C(=O)OC(C)(C)C)C(=O)OC(C)(C)C`, the “hERG current change (%, negative = inhibition) at 1uM” value is reported as 17.6%. For the molecule `COC(=O)c1ccc(NC(=O)CSc2n[nH]c(-c3ccncc3)n2)cc1`, the “hERG current change (%, negative = inhibition) at 1uM” value worked out at 9.54%. With `C=C1c2cccc(O)c2C(O)=C2C(=O)[C@]3(O)C(O)=C(C(N)=O)C(=O)[C@@H](N(C)C)[C@@H]3[C@@H](O)[C@H]12.Cl`, the “hERG current change (%, negative = inhibition) at 1uM” value was 14.4%.

For `O=[N+]([O-])c1ccc(-c2c(O)c3ccccc3c3nc4ccccc4nc23)cc1`, the “hERG current change (%, negative = inhibition) at 1uM” value amounted to 15.2%.
